These are yes or no findings as the source states them, for the method shown. For part of these data: Binding seen in cells or lysates may run through a third protein. Some binding calls cover weakened binding; strength is not graded here. For part of these data: Tags and fused reporters may be left off the sequences shown.

Data on 1 molecule can be found in paper PMC5738409.

For one experiment, the target named is T1, BRCA2 (Drosophila) (UniProt Q9W157).
T1 sequence: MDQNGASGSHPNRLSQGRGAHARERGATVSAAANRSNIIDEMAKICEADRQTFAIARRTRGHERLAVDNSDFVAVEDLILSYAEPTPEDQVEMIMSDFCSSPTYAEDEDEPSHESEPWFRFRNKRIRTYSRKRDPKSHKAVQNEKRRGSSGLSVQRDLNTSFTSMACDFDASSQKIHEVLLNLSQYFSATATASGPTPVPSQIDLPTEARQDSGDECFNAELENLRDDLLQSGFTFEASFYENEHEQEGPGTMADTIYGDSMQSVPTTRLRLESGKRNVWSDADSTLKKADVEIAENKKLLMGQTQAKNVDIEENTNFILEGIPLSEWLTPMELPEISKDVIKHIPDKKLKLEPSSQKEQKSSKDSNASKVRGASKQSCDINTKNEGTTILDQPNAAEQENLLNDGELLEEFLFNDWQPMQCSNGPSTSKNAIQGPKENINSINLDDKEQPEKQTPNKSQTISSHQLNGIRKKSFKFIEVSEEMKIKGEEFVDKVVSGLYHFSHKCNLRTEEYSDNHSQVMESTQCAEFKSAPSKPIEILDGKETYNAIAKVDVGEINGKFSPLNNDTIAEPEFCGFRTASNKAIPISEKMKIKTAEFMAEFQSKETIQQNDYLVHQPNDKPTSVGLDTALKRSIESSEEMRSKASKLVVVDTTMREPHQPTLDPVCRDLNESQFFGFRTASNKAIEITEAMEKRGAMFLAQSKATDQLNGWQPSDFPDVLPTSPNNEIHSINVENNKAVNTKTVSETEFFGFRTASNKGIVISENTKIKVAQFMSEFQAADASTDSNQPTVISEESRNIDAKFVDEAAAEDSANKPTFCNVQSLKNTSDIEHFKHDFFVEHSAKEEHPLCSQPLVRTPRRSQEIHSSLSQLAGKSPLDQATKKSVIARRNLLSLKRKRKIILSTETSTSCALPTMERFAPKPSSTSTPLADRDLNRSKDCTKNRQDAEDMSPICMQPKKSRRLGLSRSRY
Put plainly: co-IP; irradiated flies; how BRCA2 was precipitated or detected is not told in the text shown.

The target of another experiment is T2, p53 (Drosophila) (UniProt Q9N6D8).
T2 sequence: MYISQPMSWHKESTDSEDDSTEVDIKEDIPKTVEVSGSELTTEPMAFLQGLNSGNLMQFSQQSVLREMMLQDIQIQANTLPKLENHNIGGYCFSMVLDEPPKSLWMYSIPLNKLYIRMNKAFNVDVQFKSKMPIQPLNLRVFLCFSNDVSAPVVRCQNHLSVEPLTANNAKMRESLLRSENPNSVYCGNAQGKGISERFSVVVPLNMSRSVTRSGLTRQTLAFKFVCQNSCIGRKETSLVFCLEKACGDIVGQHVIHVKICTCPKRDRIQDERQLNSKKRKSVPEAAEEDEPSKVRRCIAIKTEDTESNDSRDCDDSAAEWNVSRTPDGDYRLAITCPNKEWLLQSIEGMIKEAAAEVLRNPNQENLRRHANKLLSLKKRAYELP
Put plainly: two-hybrid; yeast two-hybrid in EGY40 cells with pEG202 and pJG4-5 vectors; lacZ reporter, blue colonies; empty vectors as controls.

The target in experiment [1] is T3, p53_3xHA (Drosophila) (UniProt Q9N6D8).
T3 sequence: T2 sequence
Put plainly: co-IP; head extracts of flies (Gmr-Gal4 UAS-CycG::UAS-p53_3xHA) without irradiation; anti-HA and Protein A Sepharose; blot with anti-CycG.

In another experiment the target is T4, Flag-Rad9 (Drosophila) (UniProt O96533).
T4 sequence: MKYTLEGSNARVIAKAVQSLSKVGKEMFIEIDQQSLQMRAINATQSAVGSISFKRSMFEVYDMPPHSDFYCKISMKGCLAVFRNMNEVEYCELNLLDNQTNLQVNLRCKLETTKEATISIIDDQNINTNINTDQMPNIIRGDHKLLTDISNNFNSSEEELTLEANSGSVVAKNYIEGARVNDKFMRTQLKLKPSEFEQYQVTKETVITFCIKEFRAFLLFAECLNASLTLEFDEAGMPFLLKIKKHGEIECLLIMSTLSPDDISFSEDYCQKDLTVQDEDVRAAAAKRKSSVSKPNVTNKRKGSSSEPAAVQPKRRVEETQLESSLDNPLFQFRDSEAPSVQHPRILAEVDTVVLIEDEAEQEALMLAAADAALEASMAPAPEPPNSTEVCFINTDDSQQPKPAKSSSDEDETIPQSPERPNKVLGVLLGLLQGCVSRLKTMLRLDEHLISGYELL
Put plainly: co-IP; head extracts of irradiated (40 Gy) flies (Gmr-Gal4 UAS-CycG::UAS-GFP-Rad1 UAS-Flag-Rad9); precipitation with anti-Flag and Protein A Sepharose; blots with anti-CycG, anti-Flag, anti-GFP.

A further experiment deals with T5, GFP-Rad1 (Drosophila) (UniProt Q9VQD4).
T5 sequence: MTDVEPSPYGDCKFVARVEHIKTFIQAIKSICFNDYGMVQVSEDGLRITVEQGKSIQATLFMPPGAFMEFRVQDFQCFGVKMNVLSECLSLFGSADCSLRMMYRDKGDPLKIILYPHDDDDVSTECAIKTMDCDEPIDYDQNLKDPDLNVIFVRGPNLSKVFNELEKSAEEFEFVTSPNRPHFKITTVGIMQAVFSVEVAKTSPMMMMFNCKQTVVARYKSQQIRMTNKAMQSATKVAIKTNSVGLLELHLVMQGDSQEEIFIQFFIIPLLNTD
Described as above.

The target of experiment [2] is T3, p53_3xHA (Drosophila). Put plainly: co-IP; head extracts of flies (Gmr-Gal4 UAS-CycG::UAS-p53_3xHA) 2 hrs after irradiation with 40 Gy; anti-HA and Protein A Sepharose, 2 hrs at 4 °C; blot with anti-CycG; no antiserum as mock control.

B1: Cyclin G (protein, UniProt Q95TJ9 1-566)
chain: MSVPVRYSSAAAEYAAEVDCELESTLQQQQQLHLQQQYEQYQHYQYQREQDIAYYCQLQAARQQEQLMQQRTSMSSSVMPGLALPQDHQDHPAALLNGPHNNNIGLAMDAHSINAILVDDEQPSTSAQAAAAAAASAGGSAGAGSGSGLGGAIGGGKLANGINRNAEMPTDWMRIADEGRYGTPGAAGLEYQKYEQQQQLEDLAESEAGAVGGASNNNGESSSSLKKLEDQLHALTSDELYETLKEYDVLQDKFHTVLLLPKESRREVTAGGRDGSAYVLRCLKMWYELPSDVLFSAMSLVDRFLDRMAVKPKHMACMSVASFHLAIKQLDLKPIPAEDLVTISQCGCTAGDLERMAGVIANKLGVQMGHAPITSVSYLRIYYALFRNLAKEIGGDFFKFYQQLIKLEELENRLEILMCDVKTTVITPSTLALVLICLHLDFHIKESYTRGSPELKHVFEYILFLQQYMRIPDRVFTCGFSIVSGILSHYNGQNKAPYKQRLVWKLSSRTLRVLRPINRFSSDLPTIEEGIPNALDDGLRSRTESISSEEEEDWPTSPIIPIFEQC
As for B1, the binding entry is “no binding” with BRCA2 (Drosophila); “binds” in the experiment with p53 (Drosophila); “no binding (condition: flies not irradiated)” with p53_3xHA (Drosophila) [1]; “no binding” with Flag-Rad9 (Drosophila); “no binding” in the experiment with GFP-Rad1 (Drosophila); “binds” in the experiment with p53_3xHA (Drosophila) [2].
